# The list shows a part of the results.
# B1: Neuropilin-1 (Homo sapiens), O14786 (protein)
# chain: FKCMEALGMESGEIHSDQITASSQYSTNWSAERSRLNYPENGWTPGEDSYREWIQVDLGLLRFVTAVGTQGAISKETKKKYYVKTYKIDVSSNGEDWITIKEGNKPVLFQGNTNPTDVVVAVFPKPLITRFVRIKPATWETGISMRFEVYGCKITDYPCSGMLGMVSGLISDSQITSSNQGDRNWMPENIRLVTSRSGWALPPAPHSYINEWLQIDLGEEKIVRGIIIQGGKHRENKVFMRKFKIGYSNNGSDWKMIMDDSKRKAKSFEGNNNYDTPELRTFPALSTRFIRIYPERATHGGLGLRMELLGCEVE
# Experiments:
# Assay in all cases: glycan array binding signal (z-score within array); higher = stronger binding
# Details in all cases: glycan notation: IUPAC condensed, linker removed
# [1] = biological target: Man(a1-2)Man(a1-2)Man(a1-6)[Man(a1-3)]Man
# In short: (§1)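 Glycan array data came from 3228 arrays in the Consortium for Functional Glycomics database, and only arrays with an available protein sequence were kept. Glycan names were put into IUPAC-condensed notation, and columns mapping to the same glycan were averaged. The binding signal is a within-array Z-score, averaged across arrays of one protein sequence run at different concentrations or buffers and across linkers. A negative Z-score can be read as non-binding.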
# [2] = biological target: Man(a1-2)Man(a1-3)Man
# In short: as §1
# [3] = biological target: Man(a1-2)Man(a1-3)[Man(a1-2)Man(a1-6)]Man
# In short: as §1
# [4] = biological target: Man(a1-2)Man(a1-3)[Man(a1-2)Man(a1-6)]Man(a1-6)[Man(a1-2)Man(a1-2)Man(a1-3)]Man
# In short: as §1
# [5] = biological target: Man(a1-2)Man(a1-3)[Man(a1-2)Man(a1-6)]Man(a1-6)[Man(a1-2)Man(a1-2)Man(a1-3)]Man(b1-4)GlcNAc(b1-4)GlcNAc
# In short: as §1
# [6] = biological target: Man(a1-2)Man(a1-3)[Man(a1-6)]Man(a1-6)[Man(a1-2)Man(a1-3)]Man(b1-4)GlcNAc(b1-4)GlcNAc
# In short: as §1
# [7] = biological target: Man(a1-2)Man(a1-6)[Man(a1-3)]Man(a1-6)[Man(a1-2)Man(a1-2)Man(a1-3)]Man
# In short: as §1
# [8] = biological target: Man(a1-2)Man(a1-6)[Man(a1-3)]Man(a1-6)[Man(a1-2)Man(a1-2)Man(a1-3)]Man(b1-4)GlcNAc(b1-4)GlcNAc
# In short: as §1
# [9] = biological target: Man(a1-3)[Man(a1-6)]Man
# In short: as §1
# [10] = biological target: Man(a1-3)[Man(a1-6)]Man(a1-6)[Man(a1-2)Man(a1-3)]Man(b1-4)GlcNAc(b1-4)GlcNAc
# In short: as §1
# [11] = biological target: Man(a1-3)[Man(a1-6)]Man(a1-6)[Man(a1-3)]Man
# In short: as §1
# [12] = biological target: Man(a1-3)[Man(a1-6)]Man(a1-6)[Man(a1-3)]Man(b1-4)GlcNAc(b1-4)GlcNAc
# In short: as §1
# [13] = biological target: Man(a1-3)[Man(a1-6)]Man(b1-4)GlcNAc(b1-4)GlcNAc
# In short: as §1
# [14] = biological target: Man(a1-6)Man
# In short: as §1
# [15] = biological target: Man(b1-4)GlcNAc
# In short: as §1
# [16] = biological target: Neu5Ac(a2-3)Gal
# In short: as §1
# [17] = biological target: Neu5Ac(a2-3)Gal(b1-3)GalNAc
# In short: as §1
# [18] = biological target: Neu5Ac(a2-3)Gal(b1-3)GalNAc(b1-3)Gal(a1-4)Gal(b1-4)Glc
# In short: as §1
# [19] = biological target: Neu5Ac(a2-3)Gal(b1-3)GalNAc(b1-3)Gal(b1-4)GlcNAc
# In short: as §1
# [20] = biological target: Neu5Ac(a2-3)Gal(b1-3)GalNAc(b1-4)[Neu5Ac(a2-3)]Gal(b1-4)Glc
# In short: as §1
# [21] = biological target: Neu5Ac(a2-3)Gal(b1-3)GalNAc6S
# In short: as §1
# [22] = biological target: Neu5Ac(a2-3)Gal(b1-3)GlcNAc
# In short: as §1
# [23] = biological target: Neu5Ac(a2-3)Gal(b1-3)GlcNAc(b1-3)Gal(b1-3)GlcNAc
# In short: as §1
# [24] = biological target: Neu5Ac(a2-3)Gal(b1-3)GlcNAc6S
# In short: as §1
# [25] = biological target: Neu5Ac(a2-3)Gal(b1-3)[Fuc(a1-4)]GlcNAc
# In short: as §1
# [26] = biological target: Neu5Ac(a2-3)Gal(b1-3)[Fuc(a1-4)]GlcNAc(b1-3)Gal(b1-3)[Fuc(a1-4)]GlcNAc
# In short: as §1
# [27] = biological target: Neu5Ac(a2-3)Gal(b1-3)[Fuc(a1-4)]GlcNAc(b1-3)Gal(b1-4)[Fuc(a1-3)]GlcNAc
# In short: as §1
# [28] = biological target: Neu5Ac(a2-3)Gal(b1-3)[Neu5Ac(a2-3)Gal(b1-4)]GlcNAc
# In short: as §1
# [29] = biological target: Neu5Ac(a2-3)Gal(b1-3)[Neu5Ac(a2-6)]GalNAc
# In short: as §1
# [30] = biological target: Neu5Ac(a2-3)Gal(b1-4)Glc
# In short: as §1
# [31] = biological target: Neu5Ac(a2-3)Gal(b1-4)GlcNAc
# In short: as §1
# [32] = biological target: Neu5Ac(a2-3)Gal(b1-4)GlcNAc(b1-2)Man(a1-3)[GlcNAc(b1-2)Man(b1-4)GlcNAc(b1-2)Man(a1-6)]Man(b1-4)GlcNAc(b1-4)GlcNAc
# In short: as §1
# [33] = biological target: Neu5Ac(a2-3)Gal(b1-4)GlcNAc(b1-2)Man(a1-3)[Neu5Ac(a2-6)Gal(b1-4)GlcNAc(b1-2)Man(a1-6)]Man(b1-4)GlcNAc(b1-4)GlcNAc
# In short: as §1
# [34] = biological target: Neu5Ac(a2-3)Gal(b1-4)GlcNAc(b1-3)Gal(b1-3)GlcNAc
# In short: as §1
# [35] = biological target: Neu5Ac(a2-3)Gal(b1-4)GlcNAc(b1-3)Gal(b1-4)GlcNAc
# In short: as §1
# [36] = biological target: Neu5Ac(a2-3)Gal(b1-4)GlcNAc(b1-3)Gal(b1-4)GlcNAc(b1-3)Gal(b1-4)GlcNAc
# In short: as §1
# [37] = biological target: Neu5Ac(a2-3)Gal(b1-4)GlcNAc(b1-3)Gal(b1-4)[Fuc(a1-3)]GlcNAc
# In short: as §1
binder,measurement,setting,value
B1,glycan array binding signal (z-score),[1],-0.184
same,glycan array binding signal (z-score),[2],-0.147
same,glycan array binding signal (z-score),[3],-0.276
same,glycan array binding signal (z-score),[4],-0.321
same,glycan array binding signal (z-score),[5],-0.222
same,glycan array binding signal (z-score),[6],-0.189
same,glycan array binding signal (z-score),[7],-0.287
same,glycan array binding signal (z-score),[8],-0.27
same,glycan array binding signal (z-score),[9],-0.292
same,glycan array binding signal (z-score),[10],-0.269
same,glycan array binding signal (z-score),[11],-0.311
same,glycan array binding signal (z-score),[12],-0.196
same,glycan array binding signal (z-score),[13],-0.133
same,glycan array binding signal (z-score),[14],-0.262
same,glycan array binding signal (z-score),[15],-0.289
same,glycan array binding signal (z-score),[16],-0.3
same,glycan array binding signal (z-score),[17],-0.216
same,glycan array binding signal (z-score),[18],-0.237
same,glycan array binding signal (z-score),[19],-0.255
same,glycan array binding signal (z-score),[20],-0.298
same,glycan array binding signal (z-score),[21],-0.311
same,glycan array binding signal (z-score),[22],-0.256
same,glycan array binding signal (z-score),[23],-0.319
same,glycan array binding signal (z-score),[24],-0.162
same,glycan array binding signal (z-score),[25],-0.283
same,glycan array binding signal (z-score),[26],-0.172
same,glycan array binding signal (z-score),[27],0.065
same,glycan array binding signal (z-score),[28],-0.279
same,glycan array binding signal (z-score),[29],-0.177
same,glycan array binding signal (z-score),[30],-0.196
same,glycan array binding signal (z-score),[31],-0.243
same,glycan array binding signal (z-score),[32],-0.246
same,glycan array binding signal (z-score),[33],-0.2
same,glycan array binding signal (z-score),[34],-0.303
same,glycan array binding signal (z-score),[35],-0.304
same,glycan array binding signal (z-score),[36],-0.277
same,glycan array binding signal (z-score),[37],-0.204
